Data from the supplement of paper PMC12067230.
The data scatter; read single values as rough.

assay: amyloid nucleation score relative to library mode (yeast Sup35 reporter selection) (log enrichment difference); higher = more amyloid nucleation; sequences are the first 22 residues of the Bri2 peptide extended by up to 12 random residues; conditions: random library (experiment): 1;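 active = nucleation score significantly above 0 at FDR 0.05; inactive = not significantly above 0 or absent from output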
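Note: [psi-pin-] Saccharomyces cerevisiae expressing SupN fusions, induced by 100 µM Cu2SO4, selected 7 d at 30 °C without adenine and uracil, scored by deep sequencing of output versus input.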

Sequence	amyloid nucleation score
EASNCFAIRHFENKFAVETLICTGVIL	4.39
EASNCFAIRHFENKFAVETLICLTLQFEQEPD	inactive
EASNCFAIRHFENKFAVETLICIYPVVMPNQLVR	5.2
EASNCFAIRHFENKFAVETLICFQLTHLFKFVTS	inactive
EASNCFAIRHFENKFAVETLICWLRWSSCDSACR	inactive
EASNCFAIRHFENKFAVETLICEAFEMMCHVDSE	inactive
EASNCFAIRHFENKFAVETLICVWAEPSGSSFRM	1.99
EASNCFAIRHFENKFAVETLICNVRWSNETLSYS	inactive
EASNCFAIRHFENKFAVETLICGLCTSKVLIGGW	4.48
EASNCFAIRHFENKFAVETLICEGGRLQNPALPV	inactive
EASNCFAIRHFENKFAVETLICTDWSTNK	inactive
EASNCFAIRHFENKFAVETLICDC	inactive
EASNCFAIRHFENKFAVETLICTVQAV	inactive
EASNCFAIRHFENKFAVETLICGYRSAVSLCVWR	1.2
EASNCFAIRHFENKFAVETLICGALRAEFAFPRG	inactive
EASNCFAIRHFENKFAVETLICFGRRCRLVCSNW	inactive
EASNCFAIRHFENKFAVETLICVCGCMESARVP	5.57
EASNCFAIRHFENKFAVETLICLGHVCDVPWWGC	6.27
EASNCFAIRHFENKFAVETLICCPYCLVKLSGLC	inactive
EASNCFAIRHFENKFAVETLICRPKGRVWVGGVW	inactive
EASNCFAIRHFENKFAVETLICVVLYSS	inactive
EASNCFAIRHFENKFAVETLICVVEKNASIEAKA	inactive
EASNCFAIRHFENKFAVETLICVMRFL	0.703
EASNCFAIRHFENKFAVETLICQCWYRCPRECGE	5.03
EASNCFAIRHFENKFAVETLICQRCEGQEGSRAS	inactive
EASNCFAIRHFENKFAVETLICVWCITTLGTAGV	inactive
EASNCFAIRHFENKFAVETLICLD	inactive
EASNCFAIRHFENKFAVETLICDPNVVKGGAVDS	inactive

Sequence	amyloid nucleation score
EASNCFAIRHFENKFAVETLICHFSHESYSFKVL	-0.187
EASNCFAIRHFENKFAVETLICCISPCSLGDVLL	8.67
EASNCFAIRHFENKFAVETLICLDH	inactive
EASNCFAIRHFENKFAVETLICGTHNSAVGCEGN	0.693
EASNCFAIRHFENKFAVETLICEFVQKQICGLY	inactive
EASNCFAIRHFENKFAVETLICGMNLSCD	5.17
EASNCFAIRHFENKFAVETLICGHEPCTFTRVGS	3.8
EASNCFAIRHFENKFAVETLICYKRRGPRGQLRR	inactive
EASNCFAIRHFENKFAVETLICVSS	inactive
EASNCFAIRHFENKFAVETLICGQYCVFM	9.2
EASNCFAIRHFENKFAVETLICVFMDDGVARPVA	7.73
EASNCFAIRHFENKFAVETLICWELAGVAVGALT	inactive
EASNCFAIRHFENKFAVETLICPNASTRQGVPAG	-0.331
EASNCFAIRHFENKFAVETLICLIDMRFAGVSKR	1.32
EASNCFAIRHFENKFAVETLICYSMQGVGQSVCR	2.43
EASNCFAIRHFENKFAVETLICIEAGDTNSGHPV	-0.102
EASNCFAIRHFENKFAVETLICGVGCGNDGRWRE	3.67
EASNCFAIRHFENKFAVETLICVPIRSSWIVTFT	inactive
EASNCFAIRHFENKFAVETLICVYHYFLNTHSRR	inactive
EASNCFAIRHFENKFAVETLICLEMGPFLEFFVD	3.43
EASNCFAIRHFENKFAVETLICAKLFNRYRFIVV	inactive
EASNCFAIRHFENKFAVETLICCKMLP	6.27
EASNCFAIRHFENKFAVETLICLWISRLRSEGFQ	inactive
EASNCFAIRHFENKFAVETLICPNAQFKASGCFS	inactive
EASNCFAIRHFENKFAVETLICVRAYPGFEVEWT	inactive
EASNCFAIRHFENKFAVETLICWYWAADRATCGV	-0.179
EASNCFAIRHFENKFAVETLICRGDQMSVREVSV	inactive

same assay, conditions: random library (experiment): 2

Sequence	amyloid nucleation score
EASNCFAIRHFENKFAVETLICLAVNFQWLENLK	inactive
EASNCFAIRHFENKFAVETLICYHYHNFFGAFGG	0.908
EASNCFAIRHFENKFAVETLICFQNCRRSETWER	5.14
EASNCFAIRHFENKFAVETLICLYFTSTR	inactive
EASNCFAIRHFENKFAVETLICRVCEDTLLLPYS	inactive
EASNCFAIRHFENKFAVETLICRNWLTYIKLVSG	0.664
EASNCFAIRHFENKFAVETLICARGDKLYQGKES	inactive
EASNCFAIRHFENKFAVETLICHIWRSG	2.41
EASNCFAIRHFENKFAVETLICLSVFCTSMVRNC	inactive
EASNCFAIRHFENKFAVETLICHMTGYQCVFVGC	inactive
EASNCFAIRHFENKFAVETLICRED	inactive
EASNCFAIRHFENKFAVETLICKRDISNLYGFCS	inactive
EASNCFAIRHFENKFAVETLICASLVGVT	inactive
EASNCFAIRHFENKFAVETLICILANHNSFHSLR	0.288
EASNCFAIRHFENKFAVETLICGNLPYEF	inactive
EASNCFAIRHFENKFAVETLICRMYVAK	inactive

Sequence	amyloid nucleation score
EASNCFAIRHFENKFAVETLICYVCLYGIIAHPF	0.248
EASNCFAIRHFENKFAVETLICQNVITYDDTASL	8.25
EASNCFAIRHFENKFAVETLICWNLQ	inactive
EASNCFAIRHFENKFAVETLICFGS	4.65
EASNCFAIRHFENKFAVETLICGAMNATSRSGSI	inactive
EASNCFAIRHFENKFAVETLICPAVLWNLPRWCC	5.74
EASNCFAIRHFENKFAVETLICIFLHLT	inactive
EASNCFAIRHFENKFAVETLICTYRLFRQQVVNA	inactive
EASNCFAIRHFENKFAVETLICNGHCWVYLCKVC	-0.122
EASNCFAIRHFENKFAVETLICLYQMCLGYFVYW	inactive
EASNCFAIRHFENKFAVETLICHYSNWRVVHQLW	inactive
EASNCFAIRHFENKFAVETLICFKGTYDIAAMRM	3.5
EASNCFAIRHFENKFAVETLICCYVWTMSSWLYR	inactive
EASNCFAIRHFENKFAVETLICIDLRSWRSMGIG	3.27
EASNCFAIRHFENKFAVETLICRNRILDGGLWTS	1.56

same assay, conditions: random library (experiment): 3

Sequence	amyloid nucleation score
EASNCFAIRHFENKFAVETLICRCNCCTYPSDEV	9.56
EASNCFAIRHFENKFAVETLICMPCLVLAGGYWG	0.693
EASNCFAIRHFENKFAVETLICCPDMCLYHELMW	2.27
EASNCFAIRHFENKFAVETLICFWSLETDSCCF	inactive
EASNCFAIRHFENKFAVETLICRGVFRVGQSQYR	2.47
EASNCFAIRHFENKFAVETLICFKAMI	3.97
EASNCFAIRHFENKFAVETLICRSVTIQKMLANV	5.69
EASNCFAIRHFENKFAVETLICVCVRKIG	inactive
EASNCFAIRHFENKFAVETLICGMVVGGRLCAGM	inactive
EASNCFAIRHFENKFAVETLICLIS	8.59
EASNCFAIRHFENKFAVETLICGPSDRFVDYEND	inactive
EASNCFAIRHFENKFAVETLICKESE	inactive
EASNCFAIRHFENKFAVETLICGHGLIGVVCHAK	inactive
EASNCFAIRHFENKFAVETLICAEARR	inactive
EASNCFAIRHFENKFAVETLICESLF	5.26
EASNCFAIRHFENKFAVETLICLRHVGAE	inactive
EASNCFAIRHFENKFAVETLICDCAGLRVWTGWP	-0.0945

Sequence	amyloid nucleation score
EASNCFAIRHFENKFAVETLICAHMTWYCGCARR	6.91
EASNCFAIRHFENKFAVETLICGVALIGPRLRSL	inactive
EASNCFAIRHFENKFAVETLICPVQSYVMYGRVL	1.19
EASNCFAIRHFENKFAVETLICMLTIV	inactive
EASNCFAIRHFENKFAVETLICVIVWRTSTRERG	inactive
EASNCFAIRHFENKFAVETLICVLVSRCPFLCRC	inactive
EASNCFAIRHFENKFAVETLICFDTGHVGDELWR	1.76
EASNCFAIRHFENKFAVETLICCTAARSSICNHT	inactive
EASNCFAIRHFENKFAVETLICLYRGLRLVAGGL	inactive
EASNCFAIRHFENKFAVETLICGGLGNRRCGVCS	inactive
EASNCFAIRHFENKFAVETLICGLKACMVGGLHP	5.45
EASNCFAIRHFENKFAVETLICEYLVYSYMLCTK	inactive
EASNCFAIRHFENKFAVETLICLLYCIGPMWSGL	inactive
EASNCFAIRHFENKFAVETLICDMAYTKVVFGHW	-0.0441
EASNCFAIRHFENKFAVETLICLDATFVPNQSRA	0.624
EASNCFAIRHFENKFAVETLICHRVGCVTQRESR	inactive
EASNCFAIRHFENKFAVETLICLVRWL	inactive
